{"source": "the supplement of paper PMC8728848", "assay_in_all_cases": "glycan array binding signal (z-score within array); higher = stronger binding", "settings_in_all_cases": "glycan notation: IUPAC condensed, linker removed", "key": {"[1]": {"molecular_target": "GlcNAc(b1-6)Gal(b1-4)GlcNAc", "summary_of_the_method": "(§1)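 Glycan array data were curated from 3228 arrays in the Consortium for Functional Glycomics database and kept only where the protein sequence was available. Glycan names were converted to IUPAC-condensed notation, and columns mapping to the same glycan were averaged. The binding signal is a within-array Z-score, averaged across arrays of the same protein sequence at different concentrations or buffers and across linkers. Negative Z-scores can be read as non-binding.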"}, "GlcNAc(b1-6)GalNAc": {"molecular_target": "GlcNAc(b1-6)GalNAc", "summary_of_the_method": "as §1"}, "GlcNAc3Prop(b1-4)GlcNAc": {"molecular_target": "GlcNAc3Prop(b1-4)GlcNAc", "summary_of_the_method": "as §1"}, "[2]": {"molecular_target": "GlcNAc6S(b1-3)Gal(b1-4)GlcNAc", "summary_of_the_method": "as §1"}, "Kdn(a2-3)Gal(b1-3)GalNAc": {"molecular_target": "Kdn(a2-3)Gal(b1-3)GalNAc", "summary_of_the_method": "as §1"}, "Kdn(a2-3)Gal(b1-3)GlcNAc": {"molecular_target": "Kdn(a2-3)Gal(b1-3)GlcNAc", "summary_of_the_method": "as §1"}, "Kdn(a2-3)Gal(b1-4)Glc": {"molecular_target": "Kdn(a2-3)Gal(b1-4)Glc", "summary_of_the_method": "as §1"}, "Kdn(a2-3)Gal(b1-4)GlcNAc": {"molecular_target": "Kdn(a2-3)Gal(b1-4)GlcNAc", "summary_of_the_method": "as §1"}, "[3]": {"molecular_target": "Kdn(a2-3)Gal(b1-4)[Fuc(a1-3)]GlcNAc", "summary_of_the_method": "as §1"}, "Kdn(a2-6)Gal(b1-4)GlcNAc": {"molecular_target": "Kdn(a2-6)Gal(b1-4)GlcNAc", "summary_of_the_method": "as §1"}, "[4]": {"molecular_target": "Man(a1-2)Man(a1-2)Man(a1-3)Man", "summary_of_the_method": "as §1"}, "[5]": {"molecular_target": "Man(a1-2)Man(a1-2)Man(a1-6)[Man(a1-3)]Man", "summary_of_the_method": "as §1"}, "Man(a1-2)Man(a1-3)Man": {"molecular_target": "Man(a1-2)Man(a1-3)Man", "summary_of_the_method": "as §1"}, "[6]": {"molecular_target": "Man(a1-2)Man(a1-3)[Man(a1-2)Man(a1-6)]Man", "summary_of_the_method": "as §1"}, "[7]": {"molecular_target": "Man(a1-2)Man(a1-3)[Man(a1-2)Man(a1-6)]Man(a1-6)[Man(a1-2)Man(a1-2)Man(a1-3)]Man", "summary_of_the_method": "as §1"}, "[8]": {"molecular_target": "Man(a1-2)Man(a1-3)[Man(a1-2)Man(a1-6)]Man(a1-6)[Man(a1-2)Man(a1-2)Man(a1-3)]Man(b1-4)GlcNAc(b1-4)GlcNAc", "summary_of_the_method": "as §1"}, "[9]": {"molecular_target": "Man(a1-2)Man(a1-3)[Man(a1-6)]Man(a1-6)[Man(a1-2)Man(a1-3)]Man(b1-4)GlcNAc(b1-4)GlcNAc", "summary_of_the_method": "as §1"}, "[10]": {"molecular_target": "Man(a1-2)Man(a1-6)[Man(a1-3)]Man(a1-6)[Man(a1-2)Man(a1-2)Man(a1-3)]Man", "summary_of_the_method": "as §1"}, "[11]": {"molecular_target": "Man(a1-2)Man(a1-6)[Man(a1-3)]Man(a1-6)[Man(a1-2)Man(a1-2)Man(a1-3)]Man(b1-4)GlcNAc(b1-4)GlcNAc", "summary_of_the_method": "as §1"}, "Man(a1-3)[Man(a1-6)]Man": {"molecular_target": "Man(a1-3)[Man(a1-6)]Man", "summary_of_the_method": "as §1"}, "[12]": {"molecular_target": "Man(a1-3)[Man(a1-6)]Man(a1-6)[Man(a1-2)Man(a1-3)]Man(b1-4)GlcNAc(b1-4)GlcNAc", "summary_of_the_method": "as §1"}, "[13]": {"molecular_target": "Man(a1-3)[Man(a1-6)]Man(a1-6)[Man(a1-3)]Man", "summary_of_the_method": "as §1"}, "[14]": {"molecular_target": "Man(a1-3)[Man(a1-6)]Man(a1-6)[Man(a1-3)]Man(b1-4)GlcNAc(b1-4)GlcNAc", "summary_of_the_method": "as §1"}, "[15]": {"molecular_target": "Man(a1-3)[Man(a1-6)]Man(b1-4)GlcNAc(b1-4)GlcNAc", "summary_of_the_method": "as §1"}, "[16]": {"molecular_target": "Man(a1-3)[Man(a1-6)]Man(b1-4)GlcNAc(b1-4)[Fuc(a1-6)]GlcNAc", "summary_of_the_method": "as §1"}, "Man(a1-6)Man": {"molecular_target": "Man(a1-6)Man", "summary_of_the_method": "as §1"}, "Man(b1-4)GlcNAc": {"molecular_target": "Man(b1-4)GlcNAc", "summary_of_the_method": "as §1"}, "Neu5Ac(a2-3)Gal": {"molecular_target": "Neu5Ac(a2-3)Gal", "summary_of_the_method": "as §1"}, "[17]": {"molecular_target": "Neu5Ac(a2-3)Gal(b1-3)GalNAc", "summary_of_the_method": "as §1"}, "[18]": {"molecular_target": "Neu5Ac(a2-3)Gal(b1-3)GalNAc(b1-3)Gal(a1-4)Gal(b1-4)Glc", "summary_of_the_method": "as §1"}, "[19]": {"molecular_target": "Neu5Ac(a2-3)Gal(b1-3)GalNAc(b1-4)[Neu5Ac(a2-3)]Gal(b1-4)Glc", "summary_of_the_method": "as §1"}, "[20]": {"molecular_target": "Neu5Ac(a2-3)Gal(b1-3)GalNAc(b1-4)[Neu5Ac(a2-8)Neu5Ac(a2-3)]Gal(b1-4)Glc", "summary_of_the_method": "as §1"}, "[21]": {"molecular_target": "Neu5Ac(a2-3)Gal(b1-3)GalNAc6S", "summary_of_the_method": "as §1"}, "[22]": {"molecular_target": "Neu5Ac(a2-3)Gal(b1-3)GlcNAc", "summary_of_the_method": "as §1"}, "[23]": {"molecular_target": "Neu5Ac(a2-3)Gal(b1-3)GlcNAc(b1-2)Man(a1-3)[GlcNAc(b1-4)][Neu5Ac(a2-3)Gal(b1-3)GlcNAc(b1-2)Man(a1-6)]Man(b1-4)GlcNAc(b1-4)GlcNAc", "summary_of_the_method": "as §1"}, "[24]": {"molecular_target": "Neu5Ac(a2-3)Gal(b1-3)GlcNAc(b1-3)Gal(b1-3)GlcNAc", "summary_of_the_method": "as §1"}, "[25]": {"molecular_target": "Neu5Ac(a2-3)Gal(b1-3)GlcNAc(b1-3)Gal(b1-4)GlcNAc", "summary_of_the_method": "as §1"}, "[26]": {"molecular_target": "Neu5Ac(a2-3)Gal(b1-3)GlcNAc(b1-3)GalNAc", "summary_of_the_method": "as §1"}, "[27]": {"molecular_target": "Neu5Ac(a2-3)Gal(b1-3)GlcNAc(b1-6)GalNAc", "summary_of_the_method": "as §1"}, "[28]": {"molecular_target": "Neu5Ac(a2-3)Gal(b1-3)GlcNAc6S", "summary_of_the_method": "as §1"}, "[29]": {"molecular_target": "Neu5Ac(a2-3)Gal(b1-3)[Fuc(a1-4)]GlcNAc", "summary_of_the_method": "as §1"}, "[30]": {"molecular_target": "Neu5Ac(a2-3)Gal(b1-3)[Fuc(a1-4)]GlcNAc(b1-3)Gal(b1-3)[Fuc(a1-4)]GlcNAc", "summary_of_the_method": "as §1"}, "[31]": {"molecular_target": "Neu5Ac(a2-3)Gal(b1-3)[Fuc(a1-4)]GlcNAc(b1-3)Gal(b1-4)[Fuc(a1-3)]GlcNAc", "summary_of_the_method": "as §1"}, "[32]": {"molecular_target": "Neu5Ac(a2-3)Gal(b1-3)[Neu5Ac(a2-3)Gal(b1-4)]GlcNAc", "summary_of_the_method": "as §1"}, "[33]": {"molecular_target": "Neu5Ac(a2-3)Gal(b1-3)[Neu5Ac(a2-6)]GalNAc", "summary_of_the_method": "as §1"}}, "note": "The other results are listed elsewhere or left out."}
{"binder": "CIH1 (Colletotrichum higginsianum) (protein) LPQATPTTPTPTSASAAATISATSSPTCSPGPVIDYTVVSGDTLTIISQRFSSGICNIADASGITNPNFLSLGQVLQVPTYVCTPDNTSCLAKEGSDTCVEGGPATHTIVAGDTFFLVAQSLGLDVNALLAANEGVDPLLLQIGDVINIPVC", "values": [{"measurement": "glycan array binding signal (z-score)", "setting": "[1]", "result": -0.073}, {"measurement": "glycan array binding signal (z-score)", "setting": "GlcNAc(b1-6)GalNAc", "result": -0.076}, {"measurement": "glycan array binding signal (z-score)", "setting": "GlcNAc3Prop(b1-4)GlcNAc", "result": -0.075}, {"measurement": "glycan array binding signal (z-score)", "setting": "[2]", "result": -0.055}, {"measurement": "glycan array binding signal (z-score)", "setting": "Kdn(a2-3)Gal(b1-3)GalNAc", "result": -0.068}, {"measurement": "glycan array binding signal (z-score)", "setting": "Kdn(a2-3)Gal(b1-3)GlcNAc", "result": -0.082}, {"measurement": "glycan array binding signal (z-score)", "setting": "Kdn(a2-3)Gal(b1-4)Glc", "result": -0.015}, {"measurement": "glycan array binding signal (z-score)", "setting": "Kdn(a2-3)Gal(b1-4)GlcNAc", "result": -0.058}, {"measurement": "glycan array binding signal (z-score)", "setting": "[3]", "result": -0.07}, {"measurement": "glycan array binding signal (z-score)", "setting": "Kdn(a2-6)Gal(b1-4)GlcNAc", "result": -0.075}, {"measurement": "glycan array binding signal (z-score)", "setting": "[4]", "result": -0.049}, {"measurement": "glycan array binding signal (z-score)", "setting": "[5]", "result": -0.068}, {"measurement": "glycan array binding signal (z-score)", "setting": "Man(a1-2)Man(a1-3)Man", "result": -0.073}, {"measurement": "glycan array binding signal (z-score)", "setting": "[6]", "result": -0.062}, {"measurement": "glycan array binding signal (z-score)", "setting": "[7]", "result": -0.076}, {"measurement": "glycan array binding signal (z-score)", "setting": "[8]", "result": -0.048}, {"measurement": "glycan array binding signal (z-score)", "setting": "[9]", "result": -0.068}, {"measurement": "glycan array binding signal (z-score)", "setting": "[10]", "result": -0.065}, {"measurement": "glycan array binding signal (z-score)", "setting": "[11]", "result": -0.074}, {"measurement": "glycan array binding signal (z-score)", "setting": "Man(a1-3)[Man(a1-6)]Man", "result": -0.045}, {"measurement": "glycan array binding signal (z-score)", "setting": "[12]", "result": -0.088}, {"measurement": "glycan array binding signal (z-score)", "setting": "[13]", "result": -0.076}, {"measurement": "glycan array binding signal (z-score)", "setting": "[14]", "result": -0.059}, {"measurement": "glycan array binding signal (z-score)", "setting": "[15]", "result": -0.069}, {"measurement": "glycan array binding signal (z-score)", "setting": "[16]", "result": -0.048}, {"measurement": "glycan array binding signal (z-score)", "setting": "Man(a1-6)Man", "result": -0.082}, {"measurement": "glycan array binding signal (z-score)", "setting": "Man(b1-4)GlcNAc", "result": -0.075}, {"measurement": "glycan array binding signal (z-score)", "setting": "Neu5Ac(a2-3)Gal", "result": -0.067}, {"measurement": "glycan array binding signal (z-score)", "setting": "[17]", "result": -0.074}, {"measurement": "glycan array binding signal (z-score)", "setting": "[18]", "result": -0.067}, {"measurement": "glycan array binding signal (z-score)", "setting": "[19]", "result": -0.055}, {"measurement": "glycan array binding signal (z-score)", "setting": "[20]", "result": -0.066}, {"measurement": "glycan array binding signal (z-score)", "setting": "[21]", "result": -0.086}, {"measurement": "glycan array binding signal (z-score)", "setting": "[22]", "result": -0.05}, {"measurement": "glycan array binding signal (z-score)", "setting": "[23]", "result": -0.072}, {"measurement": "glycan array binding signal (z-score)", "setting": "[24]", "result": -0.068}, {"measurement": "glycan array binding signal (z-score)", "setting": "[25]", "result": -0.074}, {"measurement": "glycan array binding signal (z-score)", "setting": "[26]", "result": -0.061}, {"measurement": "glycan array binding signal (z-score)", "setting": "[27]", "result": -0.061}, {"measurement": "glycan array binding signal (z-score)", "setting": "[28]", "result": -0.069}, {"measurement": "glycan array binding signal (z-score)", "setting": "[29]", "result": -0.06}, {"measurement": "glycan array binding signal (z-score)", "setting": "[30]", "result": -0.078}, {"measurement": "glycan array binding signal (z-score)", "setting": "[31]", "result": -0.074}, {"measurement": "glycan array binding signal (z-score)", "setting": "[32]", "result": -0.065}, {"measurement": "glycan array binding signal (z-score)", "setting": "[33]", "result": -0.075}]}
